# Laboratory results reported in publication PMC4336329 (PLoS ONE, 2015).
# The whole screen tested about 310,000 compounds, of which about 14,000 (4.5%) showed an effect of 50% or more. The effect is printed as a negative number. The list shows a part of the results.
# Target: human ether-à-go-go-related gene (hERG) potassium channel (human, UniProt Q12809)
# Assay: primary screen, population patch clamp on CHO cells stably expressing hERG
# 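Also: peak tail current of the secondary pulse compared with the same well before compound.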
# Sequence of human ether-à-go-go-related gene (hERG) potassium channel (Q12809 whole entry, looked up): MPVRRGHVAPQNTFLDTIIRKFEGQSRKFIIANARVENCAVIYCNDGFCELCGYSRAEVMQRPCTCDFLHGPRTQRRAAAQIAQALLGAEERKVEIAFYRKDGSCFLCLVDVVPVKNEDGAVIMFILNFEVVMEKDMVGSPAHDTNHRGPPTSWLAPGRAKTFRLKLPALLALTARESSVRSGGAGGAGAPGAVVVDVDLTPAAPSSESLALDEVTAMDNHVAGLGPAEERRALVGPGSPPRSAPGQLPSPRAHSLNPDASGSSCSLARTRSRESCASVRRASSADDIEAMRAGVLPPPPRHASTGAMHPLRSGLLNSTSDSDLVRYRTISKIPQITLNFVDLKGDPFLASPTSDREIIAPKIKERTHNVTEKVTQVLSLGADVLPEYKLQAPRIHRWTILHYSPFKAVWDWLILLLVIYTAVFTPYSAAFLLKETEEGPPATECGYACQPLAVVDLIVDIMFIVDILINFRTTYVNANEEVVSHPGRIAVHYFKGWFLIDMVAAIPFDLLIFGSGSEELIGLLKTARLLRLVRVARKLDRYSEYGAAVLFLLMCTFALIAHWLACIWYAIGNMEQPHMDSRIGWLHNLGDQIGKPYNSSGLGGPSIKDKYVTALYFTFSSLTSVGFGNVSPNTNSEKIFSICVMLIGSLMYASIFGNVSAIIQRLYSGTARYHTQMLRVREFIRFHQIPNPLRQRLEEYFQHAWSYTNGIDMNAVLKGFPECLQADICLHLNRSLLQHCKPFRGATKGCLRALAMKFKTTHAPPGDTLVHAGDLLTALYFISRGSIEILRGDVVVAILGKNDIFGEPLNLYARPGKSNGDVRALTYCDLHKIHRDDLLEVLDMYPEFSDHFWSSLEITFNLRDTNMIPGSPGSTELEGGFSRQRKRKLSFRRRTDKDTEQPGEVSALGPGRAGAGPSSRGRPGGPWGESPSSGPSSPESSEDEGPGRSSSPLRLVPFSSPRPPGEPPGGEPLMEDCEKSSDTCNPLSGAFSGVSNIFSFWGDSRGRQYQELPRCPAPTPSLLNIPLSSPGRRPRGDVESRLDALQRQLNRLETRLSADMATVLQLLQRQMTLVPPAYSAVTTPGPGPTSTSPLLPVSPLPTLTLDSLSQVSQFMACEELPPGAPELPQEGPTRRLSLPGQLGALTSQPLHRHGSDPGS
row,Structure (SMILES),"hERG current change (%, negative = inhibition) at 10uM"
1,CN(CCO)CC(O)Cn1cnc2c1c(=O)n(C)c(=O)n2C.O=C(O)c1cccnc1 (stereo not drawn),19.7%
2,CCc1nn2c(=O)cc(COc3ccc(/C=C4\C(=N)N5N=C(CC(C)C)SC5=NC4=O)cc3)nc2s1,-7.34%
3,CCNC(=S)NNC(=O)c1cc(C)on1,7.53%
4,COc1ccc(C(=O)C2CCCN(C(=O)c3cc(C(C)C)no3)C2)cc1F (stereo not drawn),-56.9%
5,COc1ccccc1N1C(=O)C2CC(C)=C(C)CC2C1=O (stereo not drawn),5%
6,CC1CN(C(=O)COc2ncnc3ccccc23)CC(C)O1 (stereo not drawn),24.6%
7,CCn1c(O)c(C=NCCN2CCOCC2)c(=O)[nH]c1=S,3.42%
8,O=C(Nc1ccc2c(c1)OCCO2)c1ccc2nccnc2c1,3.73%
9,CCN(CC)S(=O)(=O)c1cccc(C(=O)N[C@H](C(=O)O)C(C)C)c1,7.81%
10,CC(C)CN(C(=O)CSc1nc(-c2ccccc2)cn1N)c1c(N)n(Cc2ccccc2)c(=O)[nH]c1=O,7.38%
11,CCn1c(SCC(=O)N2CCOCC2)nc2sc3c(c2c1=O)CCCC3,-5.19%
12,Cc1cccc(NC(=O)CSc2nc3ccc(NC(=O)CSc4nnnn4-c4ccccc4)cc3s2)c1C,4.63%
13,O=C(Nc1ccc(Cl)cc1Cl)Nn1cnnc1,0.0491%
14,CN(C)CCOC(=O)NC12CC3CC(CC(C3)C1)C2.Cl,-6.31%
15,N#CCC(=O)N/N=C/c1cc(Br)ccc1OCc1cccc2ccccc12,14.7%
16,C=CCOc1ccnc(-c2ccccc2)n1,10.2%
17,CC(=O)OC1c2ccccc2C(=O)N1c1ccccc1C (stereo not drawn),-5.3%
18,CCOC(=O)c1ccc(N2CCOCC2)c(NC(=O)c2ccc3c(c2)OCO3)c1,-1.01%
19,CCOC(=O)C1=C(C)NC2=C(C(=O)CCC2)C1c1coc2ccccc2c1=O (stereo not drawn),8%

row,Structure (SMILES),"hERG current change (%, negative = inhibition) at 10uM"
1,COc1cccc(-c2nc(C(=O)NCCCN3CCOCC3)cc3c2[nH]c2ccccc23)c1,-65.3%
2,CN(c1ccccc1)S(=O)(=O)c1ccc(C(=O)NCC(c2ccco2)N2CCCCC2)cc1 (stereo not drawn),-12.1%
3,O=C(NC1CC1)C(Cl)c1ccccc1 (stereo not drawn),5.39%
4,CN(CC(=O)Nc1ccc(Cl)cc1)C(=O)CNC(=O)c1ccc(Br)o1,-2.85%
5,O=C(Cn1ncc2c(=O)oc3ccccc3c21)N1CCc2ccccc2C1,-5.56%
6,CCCCCc1c(O)c2ccccc2[nH]c1=O,7.97%
7,O=C(OCC(=O)N1CCC(Cc2ccccc2)CC1)c1ccccc1F,-9.43%
8,C[n+]1c(-c2ccccc2)sc2ccccc21.[O-][Cl+3]([O-])([O-])[O-],23.1%
9,CC1(C)CC(=O)C=C(N2CCOCC2)C1,15.6%
10,CCSc1ncnc2c1sc1nc(-c3ccco3)c3c(c12)CC(C)(C)OC3,11.8%
11,CC1CC1C(=O)OCC(=O)NC(=O)NC12CC3CC(CC(C3)C1)C2 (stereo not drawn),-1.94%
12,O=C(c1ccc(S(=O)(=O)N2CCCC2)cc1)N1CCN(Cc2ccc3c(c2)OCO3)CC1,-28%
13,CCCCN1CCN=C1Nc1ccccc1,15.2%
14,Cl.Nc1n[nH]c(-c2ccc(F)cc2)n1,-12.2%
15,Cc1nc2ccccc2c(=O)n1/N=C/c1ccccc1,-0.523%
16,Cn1c(=O)oc2cc(S(=O)(=O)N3CCC(C(=O)NCC4COc5ccccc5O4)CC3)ccc21 (stereo not drawn),6.65%
17,COc1ccc(CN2CCNC(=O)C2CC(=O)NCC(C)(C)N2CCOCC2)cc1C (stereo not drawn),20%
18,Cc1ccc(N/N=C/c2ccncc2)cc1.Cl,4.03%
19,CCOc1ccc(-c2c(=O)n(OCc3ccc([N+](=O)[O-])cc3)c3ccccc3[n+]2[O-])c(OCC)c1,1.61%

row,Structure (SMILES),"hERG current change (%, negative = inhibition) at 10uM"
1,CN1CCN(C2=C(NS(=O)(=O)c3ccccc3)C(=O)c3ccccc3C2=O)CC1,2.75%
2,COC(=O)c1ccccc1S(=O)(=O)N1CCC(C(=O)NCC2CCCO2)CC1 (stereo not drawn),16.1%
3,COc1ccc(-c2noc(N3CCC(C(=O)Nc4cccc(OC)c4)CC3)n2)cc1,9.57%
4,COCCCNc1nc2ccccc2nc1NS(=O)(=O)c1ccc(Cl)cc1,2.14%
5,O=C(O)c1ccccc1C(=O)Nc1nc(-c2ccccc2)cs1,-23.6%
6,O=C(C1CCCC1)N1CCCC(Nc2ccc(F)cc2)C1 (stereo not drawn),-37.2%
7,CCN1CCN(CCC(=O)Nc2ccccc2OC)CC1,-11.2%
8,COc1ccc(C=C2c3ccccc3C(=O)c3ccccc32)c(OC)c1,16.1%
9,O=C(NNC(=O)c1ccc[nH]1)Nc1cc(Cl)cc(Cl)c1,9.88%
10,C/C(=C\C(=O)c1ccc(Br)cc1)Nc1cccc(Cl)c1,12.2%
11,O=C1CCC[C@@H]2[C@H]3CCC[N+]4([O-])CCC[C@@H](CN12)[C@@H]34 (stereo partly drawn),17.2%
12,CCO[C@H]1OC(C(=O)NCc2nc3ccccc3[nH]2)=C[C@@H](C2CC2)[C@@H]1CCCO,-0.846%
13,Cn1nnnc1SCC(=O)Nc1nn(-c2ccccc2)nc1C(N)=O,-13.8%
14,O=C(c1cccc(S(=O)(=O)Nc2ccc(F)cc2)c1)N1CCCC1,-3.1%
15,COc1cc(OC)cc(C(=O)Nc2ncc3c(n2)CC(C)CC3=O)c1 (stereo not drawn),-9.12%
16,O/N=C/c1ccnc(SCc2ccc(Cl)cc2)n1,10.5%
17,Cc1c(-c2cccc(NC(=O)c3cccs3)c2)nc2ncccn12,-26.9%
18,O=C(NCc1ccccc1F)Nc1ccc([N+](=O)[O-])cc1,15.9%
19,O=C(COC(=O)c1ccc2c(c1)C(=O)N(Cc1ccncc1)C2=O)Nc1ccccc1[N+](=O)[O-],-39.6%
